# Assay results taken from patent US20240228612A1 (SICHUAN KELUN BIOTECH BIOPHARMACEUTICAL, published 2024).
# T1: human Nectin-4 on cell membrane surface (human, UniProt Q96NY8 32-510)
# T1 sequence (looked up): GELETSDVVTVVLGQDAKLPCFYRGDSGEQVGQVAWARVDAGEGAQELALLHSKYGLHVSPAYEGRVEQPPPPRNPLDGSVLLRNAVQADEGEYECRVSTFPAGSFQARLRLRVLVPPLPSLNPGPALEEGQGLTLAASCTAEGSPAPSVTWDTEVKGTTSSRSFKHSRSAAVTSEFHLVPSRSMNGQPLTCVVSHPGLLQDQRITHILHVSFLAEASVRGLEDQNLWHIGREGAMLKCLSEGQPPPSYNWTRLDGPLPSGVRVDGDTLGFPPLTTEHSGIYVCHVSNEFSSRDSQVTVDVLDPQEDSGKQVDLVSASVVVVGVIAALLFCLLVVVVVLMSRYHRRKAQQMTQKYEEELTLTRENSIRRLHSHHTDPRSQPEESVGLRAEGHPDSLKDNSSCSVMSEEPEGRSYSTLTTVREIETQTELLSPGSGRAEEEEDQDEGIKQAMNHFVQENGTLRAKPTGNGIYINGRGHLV
# B1: anti-human Nectin-4 ADC 56HZ-TL001 (other, DAR 7.71)
# heavy: QVQLQESGPGLVKPSQTLSLTCTVSGYFNSITSDYDWHWIRHHPGKGLEWMGYISFSGRTYYNPSLKSRVTISHDTSKNQFSLKLSSVTAADTAVYYCARGNYDGFDYWGQGTLVTVSS[human IgG1 constant region not printed]
# light: DIVLTQSPATLSLSPGERATLSCRASQNIGTSIHWYQHKPGQSPRLLIKFASESISGIPARFSGSGSGTDFTLTISSLEPEDFAVYYCQQSKSWPTYTFGGGTKVEIKRTVAAPSVFIFPPSDEQLKSGTASVVCLLNNFYPREAKVQWKVDNALQSGNSQESVTEQDSKDSTYSLSSTLTLSKADYEKHKVYACEVTHQGLSSPVTKSFNRGEC
# modifications: TL001 linked by thioether bond to sulfhydryl groups
# Target: T1, human Nectin-4 on cell membrane surface
# Assay: cell-based or functional assay
binder,measurement,value
B1,killing activity EC50 on NCI-N87 cells (CCK8),10900 ng/mL
same,killing activity EC50 on T24-Nectin-4 cells (CCK8),1570 ng/mL
